Measurements as given in PubChem BioAssay AID1030 (National Center for Advancing Translational Sciences (NCATS), 2008).
The campaign covered roughly 220,000 compounds. About 16,000 (7.3%) were called active. Inconclusive means that the source gave no clear call. Such entries were picked first, then a sample of the others. Calls follow the shape of the dose curve; as a rule, active = well fitted inhibition curve with a large enough effect (not every such curve was filed as active); inconclusive = small, poorly fitted or top-dose-only effect, or another doubt; inactive = no such curve, though single readings can be large or run the other way. Potencies of inconclusive entries are left out as doubtful fits.

What follows are compounds tested against Aldehyde dehydrogenase 1A1 (Homo sapiens) (UniProt P00352) (assay: qHTS Assay for Inhibitors of Aldehyde Dehydrogenase 1 (ALDH1A1)). Conditions: Purified ALDH1A1, NADH fluorescence, propionaldehyde substrate; series mostly up to 75.3 µM.
Chain of UniProt P00352 (P00352 whole entry, looked up): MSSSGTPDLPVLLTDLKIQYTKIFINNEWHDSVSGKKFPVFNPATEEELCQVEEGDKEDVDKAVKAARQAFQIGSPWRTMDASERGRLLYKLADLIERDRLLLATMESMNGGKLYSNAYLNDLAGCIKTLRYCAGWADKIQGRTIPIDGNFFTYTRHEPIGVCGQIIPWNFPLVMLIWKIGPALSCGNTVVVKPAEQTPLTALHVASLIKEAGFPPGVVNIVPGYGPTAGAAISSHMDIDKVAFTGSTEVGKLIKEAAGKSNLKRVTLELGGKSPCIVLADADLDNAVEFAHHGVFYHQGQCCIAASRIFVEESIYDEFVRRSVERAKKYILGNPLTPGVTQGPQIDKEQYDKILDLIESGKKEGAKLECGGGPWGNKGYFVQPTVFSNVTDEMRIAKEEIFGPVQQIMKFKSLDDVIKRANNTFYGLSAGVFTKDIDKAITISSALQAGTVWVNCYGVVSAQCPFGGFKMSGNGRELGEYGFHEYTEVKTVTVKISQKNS
Potency is read from the fitted curve at half-maximal effect; tags tell the direction and shape of the fitted curve.

Structure (SMILES)	Potency
COc1ccc(NC(=O)Cn2c(=O)n(CC(=O)NCc3ccco3)c(=O)c3ccccc32)cc1OC	inactive
CC1CCCC(NC2CCCCNC2=O)C1 (stereo not drawn)	inactive
CS(=O)(=O)c1ccc2nc(NC(=O)C3CCCCC3)sc2c1	inactive
O=c1c(-c2nnc(SCc3ccc(Cl)cc3)o2)cccn1Cc1ccccc1	inconclusive [inhibitor, partial curve]
NC(=O)Cn1nc([N+](=O)[O-])nc1Oc1ccccc1F	inactive
C=CCNc1nnc(Cl)c2ccccc12	inconclusive [inhibitor, single point]
CC(C)(C)c1nnc2sc(SCCN3C(=O)c4ccccc4C3=O)nn2c1=O	inactive
O=C(Oc1c(Br)cc([N+](=O)[O-])cc1Br)c1cccnc1	inactive
COc1ccccc1CSc1nc2ccccc2[nH]1	inactive
c1cncc(-c2nnc(-c3ccco3)o2)c1	inconclusive [inhibitor, partial curve]
COc1cccc(NC(=O)C(OC(=O)c2ccc([N+](=O)[O-])o2)c2ccccc2)c1 (stereo not drawn)	active: 22.4 µM
CCn1c(C)nc([N+](=O)[O-])c1Sc1ccc(F)cc1	inconclusive [inhibitor, partial curve]
CS(=O)(=O)N(CC(=O)N1CCN(c2ccccc2F)CC1)c1cc(C(F)(F)F)ccc1Cl	inconclusive [inhibitor, single point]
Cc1cc(-c2ccc([N+](=O)[O-])cc2)nc2ccccc12	inconclusive [inhibitor, single point]
O=C(CCSc1ccccc1)Nc1nc2c(s1)CCCC2	inconclusive [inhibitor, partial curve]
COc1ccc(C)cc1N(CC(=O)N/N=C/c1ccccc1C(=O)O)S(=O)(=O)c1ccccc1	inactive
Cn1cc(-c2nc3cnc(N4CCOCC4)nc3n(C3CC3)c2=O)c2ccccc21	inconclusive [inhibitor, single point]
O=C(Cn1cc2c(n1)CCCCC2)NCCCN1CCOCC1	inactive
Cc1nc2ccccn2c1C(=O)NN=C1CCN(C)CC1	active: 20 µM
CC(C)Sc1nnc(CNC(=O)C23CC4CC(CC(C4)C2)C3)n1C1CCCCC1	inactive
O=C(Nc1ccccc1)Nc1ccc2nnsc2c1	inconclusive [inhibitor, single point]
CC(C)Cc1cc(C(=O)Nc2ccc3c(c2)OCO3)no1	inconclusive [inhibitor, partial curve]
CCOC(=O)c1sc2nc(CC(=O)OC)nc(NCCN(CC)CC)c2c1C	inconclusive [inhibitor, partial curve]
